About 50,000 (12%) of roughly 420,000 compounds were called active. Inconclusive means that the source gave no clear call. Such entries were picked first, then a sample of the others. The call rests on the fitted dose curve; in most records, active means well fitted inhibition curve with a large enough effect; inconclusive means small, poorly fitted or top-dose-only effect; inactive means flat fitted curve, though single readings scatter. Potencies of inconclusive entries are left out as doubtful fits.
test: qHTS for Inhibitors of human tyrosyl-DNA phosphodiesterase 1 (TDP1): qHTS in cells in presence of CPT; conditions: chicken DT40 Tdp1-/-;hTDP1 cells + 20 nM CPT, ATP luminescence, 48 h; activity change, negative = growth inhibition: at 46.2 µM (top of the series); further: nearly all actives have a fitted effect of over 55% in size
Summary of the method: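 Chicken DT40 Tdp1-/- cells stably complemented with human TDP1 were seeded at 400 cells/well in medium containing 20 nM camptothecin, exposed to pin-transferred compounds, and grown at 37 °C for at least 48 hr. Viability was read as ATP luminescence.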
On the % scale 0 is the no-effect control and ±100 the full control effect; potency means the concentration at half of the fitted maximal effect; tags describe the fitted curve by direction and shape.

Compound	Potency	activity change, negative = growth inhibition
Cc1ccc(C(=O)c2coc3ccc(O)c(CN(C)C)c23)cc1	inconclusive [inhibitor, single point]	–
CCN(CC)C(=S)NC(=O)c1ccc(F)cc1	inconclusive [inhibitor, single point]	–
O=C(NC(=S)NCCN1CCOCC1)c1ccccc1Br	–	inactive: -3.18%
CC1CCCCN1Cc1c(O)ccc2c(=O)c(-c3ccc(Cl)cc3)coc12 (centres undefined)	active: 7.31 µM	–
COc1ccc(CC(NC(C)=O)C(=O)NC2CCN(c3c(Cc4ccccc4)c(C)nc4ncnn34)CC2)c(OC)c1 (centres undefined)	inconclusive [inhibitor, single point]	–
CN(C)CCCNc1c2c(nc3ccccc13)CCC2	inconclusive [inhibitor, single point]	–
CC(C)(Oc1ccc(Cl)cc1)C(=O)N1CCN(C(=O)c2ccco2)CC1	–	inconclusive: -34.4% [inhibitor]
Cc1ccccc1NC(=O)C(NS(=O)(=O)c1ccc2c(c1)c(=O)n(C)c(=O)n2C)c1ccccc1 (centres undefined)	inconclusive [inhibitor, single point]	–
CN(C)/C=C/C(=O)c1nnn(C2CCCCC2)c1NC1CCCCC1	–	inconclusive: -30.7% [inhibitor]
COc1ccccc1NC(=O)C1CCCN(S(=O)(=O)c2ccc3c(c2)CC(C)N3C(C)=O)C1 (centres undefined)	inconclusive [inhibitor, partial curve]	–
COc1ccc(C(N)c2csc(Nc3ccc(S(C)(=O)=O)cc3)n2)cc1 (centres undefined)	active: 23.1 µM	–
C=CCN=C(NC#N)SCC(=O)c1cccc(OC)c1	–	inactive: -19.1%
CC(=O)n1cc([C@H]2C=C(C(=O)N3CCN(Cc4ccccc4)CC3)O[C@@H](OCCCCO)C2)c2ccccc21	inconclusive [inhibitor, single point]	–
CCOc1cccc2sc(NC(=O)c3ccc(S(=O)(=O)N4CCCCC4)cc3)nc12	inconclusive [inhibitor, single point]	–
COc1ccccc1CN(C)C(=O)c1cc(-c2cccs2)nc2ccccc12	inconclusive [inhibitor, single point]	–
O=C(NCc1ccc2c(c1)OCO2)c1cccc(S(=O)(=O)N2CCCC2)c1	–	inactive: 5.51%
O=C(NCC(=O)N1CCN(Cc2ccccc2)CC1)c1ccccc1Cl	–	inactive: -13.1%
COc1ccc(NC(=O)c2cc(=O)c3cc(C)cc(C)c3o2)cc1	inconclusive [inhibitor, single point]	–
Cc1cccc(C(=O)Nc2ccc(C(=O)c3ccccc3)cc2)c1	inconclusive [inhibitor, partial curve]	–
CCOc1ccc(CC(=O)NCCc2sc(-c3cccc(F)c3)nc2C)cc1	inconclusive [inhibitor, single point]	–
Cc1ccc(OCCOc2cccc(Br)c2)c([N+](=O)[O-])n1	–	inactive: -0.418%
CCOc1ccc(NC(=S)Nc2cccc3cnccc23)cc1	inconclusive [inhibitor, partial curve, poor fit]	–
CCN(C(=O)COC(=O)/C=C/c1c(C)nn(Cc2ccc(C)cc2)c1C)C1CCS(=O)(=O)C1 (centres undefined)	–	inactive: 5.36%

Compound	Potency	activity change, negative = growth inhibition
O=C(NCCS(=O)(=O)N1CCN(c2ccc(F)cc2)CC1)c1ccccc1Br	–	inactive: -15%
COC(=O)[C@@]12C[C@@H](CC(=O)NCCC(C)C)C(=O)N(CCc3ccc(OC)c(OC)c3)C1=CCC(C)(C)C2	inconclusive [inhibitor, single point]	–
CC1CCCN(C(=O)COC(=O)CNC(=O)c2ccc(Br)cc2)C1 (centres undefined)	–	inactive: 15.6%
NC(=S)n1[nH]c(-c2ccc([N+](=O)[O-])cc2)c(N=Nc2ccc(O)cc2)c1=O	inconclusive [inhibitor, partial curve]	–
COc1ccc(NC(=O)CN(C)C(=O)c2ccccc2CCc2ccccc2)cc1	–	inactive: -20.7%
Cc1ccc(COn2c(-c3ccc(Cl)cc3Cl)nc3ncccc32)cc1	inconclusive [inhibitor, single point]	–
COc1ccc(NC(=O)c2cc3c(=O)n(C)c4cc(Cl)ccc4c3s2)cc1Cl	inconclusive [inhibitor, full curve]	–
COc1ccc(N(CC(=O)Nc2cccc3ccccc23)S(C)(=O)=O)c(OC)c1	–	inactive: -13.2%
COc1cccc(N2C(=O)CC(N3CCC(c4nc5ccccc5[nH]4)CC3)C2=O)c1 (centres undefined)	–	inactive: -16.7%
CCN(CC)S(=O)(=O)c1ccc(-c2nnc(SCC(=O)c3ccc(OC)cc3)o2)cc1	–	inactive: -20%
COc1ccc(C2CC(c3ccccc3)=NN2c2ccc(N)cc2)cc1 (centres undefined)	inconclusive [inhibitor, single point]	–
CC1(C)N=C(N)N=C(N)N1c1cccc(C#N)c1	inconclusive [inhibitor, partial curve]	–
C=C(C)C(=O)Nc1cccc(C2=NOC3(C2)C[C@@H](C(N)=O)N(C(=O)c2cc([N+](=O)[O-])cc([N+](=O)[O-])c2)C3)c1 (some centres undefined)	–	inactive: -24.9%
O=C(C1=C(O)C(=O)N(Cc2ccccc2)C1c1ccco1)c1ccco1 (centres undefined)	–	inactive: -1.15%
Cc1nnsc1C(=O)NC(C)C12CC3CC(CC(C3)C1)C2 (centres undefined)	–	inconclusive: -33.3% [inhibitor]
Fc1cccc(Cc2c(-c3cccc(Br)c3)nc3ccc(Cl)cn23)c1	inconclusive [inhibitor, single point]	–
CC(NC(=O)[C@H](C)N1C(=O)N2CCc3c([nH]c4ccccc34)[C@@]2(C)C1=O)c1ccccc1 (some centres undefined)	active: 16.4 µM	–
CCc1ccc(NC2CC(=O)N(CCc3ccc(OC)c(OC)c3)C2=O)cc1 (centres undefined)	inconclusive [inhibitor, single point]	–
Cc1ccc(CCNC(=O)c2oc(=O)c3ccccc3c2-c2ccc(C)cc2)cc1	inconclusive [inhibitor, single point]	–
CCCS(=O)(=O)c1nc(S(=O)(=O)c2ccc(C)cc2)c(NCC(C)C)s1	inconclusive [inhibitor, single point]	–
CCOC(=O)N1CCC(NC(=O)C2CCCN(Cc3nc(-c4ccc(CC)cc4)oc3C)C2)CC1 (centres undefined)	active: 2.91 µM	–
Cc1cccc(NC(=O)COc2cccc3c2CCNC3=O)c1	inconclusive [inhibitor, single point]	–
CCOc1ccc(NC(=O)CN(C)C(=O)C2=COCCO2)cc1OCC	–	inactive: -11.6%

Compound	Potency	activity change, negative = growth inhibition
COc1cc2[nH]c(=S)nc(NCc3ccccn3)c2cc1OC	–	inactive: 18.2%
COc1ccc(C2=NN(C(=O)c3cccc([N+](=O)[O-])c3)C(c3cccc([N+](=O)[O-])c3)C2)cc1 (centres undefined)	–	inactive: 2.73%
CCOC(=O)C1CCN(c2ncnc3cc(OC)c(OC)cc23)CC1	inconclusive [inhibitor, single point]	–
Cc1nn(-c2ccccn2)c2c1C(c1ccsc1)C1=C(CCCC1=O)N2 (centres undefined)	inconclusive [inhibitor, single point]	–
COC(=O)CC(NC(=O)c1ccc(C)cc1)c1ccc2c(c1)OCO2 (centres undefined)	–	inactive: -24.3%
Cc1ccc(O)c(C(=O)c2cnn(C(=O)c3cccc(S(=O)(=O)N(C)C)c3)c2)c1	inconclusive [inhibitor, single point]	–
O=C(Nc1ccc2nc(-c3ccccc3)oc2c1)c1ccco1	inconclusive [inhibitor, single point]	–
CC(O)(Cc1cccnc1)c1cccs1 (centres undefined)	–	inactive: 8.55%
O=c1[nH]c2cc3ccccc3cc2nc1-c1nnnn1C1CCCC1	active: 5.17 µM	–
COCCSc1nnc(NC(=O)COC)s1	inconclusive [inhibitor, full curve, poor fit]	–
Cc1nn(C)c(C)c1Nc1ccc(N2C(=O)C3C4C=CC(C4)C3C2=O)cc1[N+](=O)[O-] (centres undefined)	inconclusive [inhibitor, partial curve, poor fit]	–
CC(C)(C)OC(=O)N1CCC(c2c(C(=O)NCc3ccco3)cnn2-c2ccc(F)cc2F)CC1	active: 23.1 µM	–
O=c1[nH]cnc(O)c1C(c1ccc(F)cc1)c1c(O)nc[nH]c1=O	–	inactive: 6.39%
COc1ccc(-n2nnnc2SCC(=O)Nc2nnc(C)s2)cc1OC	inconclusive [inhibitor, single point]	–
CC(C)NC(=O)Nc1ccc2c(c1)C(=O)N([C@H](C)CO)C[C@H](C)[C@@H](CN(C)C(=O)NC(C)C)O2	–	inactive: -1.35%
COc1ccccc1-c1cn(-c2ccccc2)c(=S)[nH]1	inconclusive [inhibitor, partial curve, poor fit]	–
CCC(=O)Nc1ccc(C)cc1-c1nc2ccccc2n(CC(=O)c2ccc(C)cc2)c1=O	inconclusive [inhibitor, single point]	–
CCN1CCN(CCNC(=O)c2ccc(/C=C3/Sc4ccccc4N(Cc4cccc(C)c4)C3=O)cc2)CC1	inconclusive [inhibitor, single point]	–
O=C(c1cc(COc2ccc(F)cc2F)on1)N1CC[C@@H]2CCCC[C@H]2C1	inconclusive [inhibitor, single point]	–
CC1=C(C(=O)c2ccccc2)C(c2ccc(OC(F)F)cc2)NC(=S)N1 (centres undefined)	inconclusive [inhibitor, single point]	–
Cc1[nH]c2ccccc2c1C(=O)c1cc(Cc2ccccc2)sc1N	inconclusive [inhibitor, single point]	–
CCOC(=O)c1c(C)c(C(=O)NCc2ccc(Cl)cc2)c(C)n1C	–	inactive: -13.9%
Cc1ccc(N2C(=O)C3C4C=CC(CNC(=S)N5CCN(c6cccc(C)c6)C(C)C5)(O4)C3C2=O)cc1 (centres undefined)	active: 9.2 µM	–
